Source: PubChem BioAssay AID602332 (National Center for Advancing Translational Sciences (NCATS), 2012)
Several values for one entry are separate records, joined by “and”; a condition that tells them apart may be missing. Identical values can stand only once. Screen size: about 420,000 compounds; about 75 (0.02%) were called active. Calls come from the whole dose curve; as a rule, active = well fitted activation curve with a large enough effect; inconclusive = small, poorly fitted or top-dose-only effect; inactive = no such curve, though single readings can be large or run the other way. The list shows a part of the results, in another mix than the full data.
Potency is the fitted concentration of half-maximal effect.

Experiment: qHTS for Inducers of the Endoplasmic Reticulum Stress Response (ERSR) in Human Glioma: qHTS; note: nearly all actives have a fitted effect of over 35% in size; for activation: % of control where 0% means no effect
Conditions: U87-MG GRP78 promoter luciferase reporter, 16 h; activation: stronger effect = higher value
Source text: Primary protein unfolding takes place for many diseases, including diabetes and hypoxia, , and triggers a reaction in the cells called ER stress response (ERSR). ). ERSR is designed as a repair mechanism, but ultimately leads to cell death via apoptosis if conditions triggering protein unfolding persist (1). The molecular clue to ERSR activation is the enhancement of the expression of key molecular chaperones, including the glucose regulated protein (GRP) 78. GRP78 is the main sensor for protein folding and the main actuator of the ERSR.
In a collaboration between the Southern Research Institute and the NIH Chemical Genomics Center, a cell based screen was developed that reliably uses GRP78 as a sensor to identify small molecules as inducers of ERSR. In resting conditions, GRP78 binds proteins and acts as a natural repressor. Once unfolded proteins are present in the ER, GRP78 releases some of the repressors and binds to the unfolded proteins. The release of the repressors executes the ERSR program. Using a human glioma cell line in a miniaturized, luminescent format, a high-throughput screen was developed to identify actuators of the ERSR.
(1) Soboloff, J. and S. A. Berger (2002). "Sustained ER Ca2+ depletion suppresses protein synthesis and induces activation-enhanced cell death in mast cells." J Biol Chem 277(16): 13812-20.
NIH Chemical Genomics Center [NCGC]
NIH Molecular Libraries Probe Centers Network [MLPCN]
Assay Submitter (PI): Maurizio Grimaldi, Southern Research Institute
Stable transfected human glioma cell line, U87-MG, are dispensed at density 1000 cells/well into Greiner white solid bottom 1536-well assay plates. Compounds are transferred via Kalypsys pin tool equipped with 1536-pin array (10nl slotted pins, V&P Scientific, San Diego, CA). The assay plates will be incubated for 16 hours and developed by adding appropriate quantities of the Promega Bright Glo reagent. The plates will be incubated at room temperature for 10 minutes prior to being transferred into a ViewLux high-throughput CCD imager (PerkinElmer), wherein end-point measurements of luminescence are acquired.
In the case of `O=C1C2C(c3cccc(/C=C/c4ccccc4)c3)CC=CC2C(c2ccc3ccccc3c2)N1Cc1ccccc1` (configuration not stated), the activation is reported as inactive: 1.84%. In the case of `COc1ccc(-c2cc(C(=O)N3CCOCC3)no2)cc1`, the activation is reported as inactive: -15.8%. With `c1ccc(-c2noc(-c3ccc4ccccc4c3)n2)nc1` the activation was inactive: -16.4%. In the case of `CCCCn1c(=O)[nH]c(=O)c2c1nc(Cn1ncc(Cl)c(Cl)c1=O)n2CCC`, the activation is reported as inactive: -19%. For `Cc1c(C(=O)c2no[n+]([O-])c2C(=O)c2cnn(C)c2C)cnn1C`, the activation was inactive: -18.5%. In the case of `CCCOc1ccc(C(=O)CCN2CCN(C(=O)OCC)CC2)cc1`, the activation is reported as inactive: -16.9%. In the case of `CC(C)(C)[C@@H]1CCC(=O)N(CC[C@H](Sc2ccccc2)c2ccccc2)CC1`, the activation is reported as inactive: 11.4%. With `Cn1ncc(S(=O)(=O)Cc2ccccc2)c(Br)c1=O` the activation was inactive: -14.7%. With `O=C1Cc2c([nH]c3ccc(Br)cc23)-c2ccccc2N1` the activation was inactive: 7.54% and inactive: -2.34% and inactive: 3.21%. In the case of `CCc1ccc(C(=O)Nc2nc3ccccc3[nH]2)cc1`, the activation is reported as inactive: -17.6%. With `COc1ccc(/C=C2\C(=O)ON=C2c2ccccc2)cc1OC` the activation was inactive: -13.4%. With `CC(=O)OC1CC[C@]2(C)C(CC(OC(C)=O)[C@@]3(C)C4=CC(=O)OC(c5ccoc5)[C@]4(C)CCC23)C1(C)C` (some centres not stated) the activation was inactive: 13%. With `O=c1c(-c2ccc(O)cc2)coc2cc(O)ccc12` the activation was inactive: 1.58% [middle of 7 runs]. For `Cc1c(O)cc2c(c1O)C(=O)CC(c1ccccc1)O2` (configuration not stated), the Potency was active: 28.2 µM. In the case of `CCCc1[nH]nc2c1C(C1CCCCC1)C(C#N)=C(N)O2` (configuration not stated), the Potency is reported as active: 35.5 µM. For `COc1ccc(O)c(-c2cc(-c3cccc(Br)c3)n[nH]2)c1`, the activation was inactive: -18.6%. For `Cc1ccc(N2C(=O)CSC23C(=O)Nc2ccccc23)cc1` (configuration not stated), the activation was inactive: 5.36%. With `COc1ccc(NC(=O)N2CCc3ccccc32)cc1` the activation was inactive: -12.2%. With `Cc1cccc(C)c1NC(=S)NCCc1ccc(O)c(O)c1` the Potency was active: 15.8 µM. In the case of `CC[C@H](C)[C@@H]1O[C@]2(CC[C@@H]1C)C[C@H]1C[C@H](CC=C(C)[C@@H](O[C@@H]3C[C@H](OC)[C@H](O[C@@H]4C[C@H](OC)[C@H](O)[C@H](C)O4)[C@H](C)O3)[C@@H](C)C=CC=C3CO[C@@H]4[C@@H](O)C(C)=C[C@@H](C(=O)O1)[C@]34O)O2`, the activation is reported as inactive: -5.27%. With `N#C/C(=C\c1ccc(O)c(O)c1)C(=O)NCCc1ccccc1` the activation was inactive: 7.24%. For `O=C1c2c(O)cc(O)cc2O[C@H](c2ccc(O)c(O)c2)C1O` (some centres not stated), the activation was inactive: 9.67%. For `Cc1ccc(-n2nnnc2Sc2ccc(S(=O)(=O)NCCN(C)C)cc2[N+](=O)[O-])cc1`, the activation was inactive: -15.3%. In the case of `CN(C)c1ccc(/C=C/c2ccc3c4ccccc4ccc3[n+]2-c2ccccc2)cc1`, the activation is reported as inactive: -18.1%. In the case of `CCC(=O)Nc1ccc2oc(-c3cccc(C)c3)nc2c1`, the activation is reported as inactive: -12.3%. In the case of `COC(=O)CSc1nc2c(c(=O)n(C)c(=O)n2C)n1CCC(C)C`, the activation is reported as inactive: -0.651%. With `CC(C)(C)C(=O)N1CCc2cc(-c3csc(N)n3)ccc21` the activation was inactive: -16.4%. For `Cc1ccccc1NC(=O)C(Cl)=C(Cl)Cl`, the Potency was active: 35.5 µM. In the case of `CCc1nnc(NC(=O)c2nc(S(=O)(=O)Cc3ccccc3)ncc2Cl)s1`, the activation is reported as inactive: -19.3%. With `OC(CNCC1CCCO1)Cn1c2ccc(Br)cc2c2cc(Br)ccc21` (configuration not stated) the activation was inactive: -15.6%. In the case of `CCCCCN(CCCCC)C(=O)C(CCC(=O)O)NC(=O)c1ccc(Cl)c(Cl)c1` (configuration not stated), the activation is reported as inactive: -4.46% and inactive: 10%. For `COc1ccc(C(=O)Nn2c(SCC(=O)NCC3CCCO3)nc3ccccc3c2=O)cc1` (configuration not stated), the activation was inactive: -12.9%. With `C[C@@H]1CC=C[C@H]2[C@H]1C(=O)N(Cc1ccccc1)[C@H]2c1ccc2ccccc2c1` the activation was inactive: 1.28%. For `CCOC(=O)c1nnc(-c2ccccc2)nc1Sc1ccccc1Cl`, the activation was inactive: -14.9%. With `Cc1noc2ncnc(Sc3ccc(Cl)cc3)c12` the activation was inactive: -14.8%. With `CCC1CC=CC2C1C(=O)N(Cc1ccccc1)C2c1ccoc1` (configuration not stated) the activation was inactive: -12.7%. With `O=C(c1cnccn1)N1CCC2(CCCN(C(c3ccccc3)c3ccccc3)C2)CC1` the Potency was active: 44.7 µM. For `COc1ccc(C(=O)c2c(C(F)(F)F)oc3c2C(=O)c2ccccc2C3=O)cc1OC`, the activation was inactive: -14.4%. With `C[C@]12CC[C@@H]3c4ccc(OC(=O)c5ccccc5)cc4CC[C@H]3[C@@H]1CC[C@@H]2O` the activation was inactive: 0.365%. For `CCC(C(=O)C(C)C(O)C(C)CCc1ccc(C)c(O)c1C(=O)O)C1OC(CC)(C2CC[C@@](O)(CC)C(C)O2)CC1C` (some centres not stated), the activation was inactive: 1.47%. In the case of `COc1ccc2cc(-c3cc(C(=O)O)c4ccccc4n3)ccc2c1`, the activation is reported as inactive: -16%. For `CCS(=O)(=O)c1ncc(Cl)c(C(=O)Nc2ccc(S(=O)(=O)N(C)c3ccccc3)cc2)n1`, the activation was inactive: -10.8% and inactive: -19.2%.
